# Experimental data published in paper PMC4336329 (PLoS ONE, 2015).
# About 2,200 (0.71%) of roughly 310,000 compounds showed an effect of 50% or more. Effects have a minus sign here. The list shows a part of the results.
# Molecular target: human ether-à-go-go-related gene (hERG) potassium channel (human, UniProt Q12809)
# Experiment: primary screen, population patch clamp on CHO cells stably expressing hERG
# human ether-à-go-go-related gene (hERG) potassium channel, sequence (Q12809 whole entry, looked up): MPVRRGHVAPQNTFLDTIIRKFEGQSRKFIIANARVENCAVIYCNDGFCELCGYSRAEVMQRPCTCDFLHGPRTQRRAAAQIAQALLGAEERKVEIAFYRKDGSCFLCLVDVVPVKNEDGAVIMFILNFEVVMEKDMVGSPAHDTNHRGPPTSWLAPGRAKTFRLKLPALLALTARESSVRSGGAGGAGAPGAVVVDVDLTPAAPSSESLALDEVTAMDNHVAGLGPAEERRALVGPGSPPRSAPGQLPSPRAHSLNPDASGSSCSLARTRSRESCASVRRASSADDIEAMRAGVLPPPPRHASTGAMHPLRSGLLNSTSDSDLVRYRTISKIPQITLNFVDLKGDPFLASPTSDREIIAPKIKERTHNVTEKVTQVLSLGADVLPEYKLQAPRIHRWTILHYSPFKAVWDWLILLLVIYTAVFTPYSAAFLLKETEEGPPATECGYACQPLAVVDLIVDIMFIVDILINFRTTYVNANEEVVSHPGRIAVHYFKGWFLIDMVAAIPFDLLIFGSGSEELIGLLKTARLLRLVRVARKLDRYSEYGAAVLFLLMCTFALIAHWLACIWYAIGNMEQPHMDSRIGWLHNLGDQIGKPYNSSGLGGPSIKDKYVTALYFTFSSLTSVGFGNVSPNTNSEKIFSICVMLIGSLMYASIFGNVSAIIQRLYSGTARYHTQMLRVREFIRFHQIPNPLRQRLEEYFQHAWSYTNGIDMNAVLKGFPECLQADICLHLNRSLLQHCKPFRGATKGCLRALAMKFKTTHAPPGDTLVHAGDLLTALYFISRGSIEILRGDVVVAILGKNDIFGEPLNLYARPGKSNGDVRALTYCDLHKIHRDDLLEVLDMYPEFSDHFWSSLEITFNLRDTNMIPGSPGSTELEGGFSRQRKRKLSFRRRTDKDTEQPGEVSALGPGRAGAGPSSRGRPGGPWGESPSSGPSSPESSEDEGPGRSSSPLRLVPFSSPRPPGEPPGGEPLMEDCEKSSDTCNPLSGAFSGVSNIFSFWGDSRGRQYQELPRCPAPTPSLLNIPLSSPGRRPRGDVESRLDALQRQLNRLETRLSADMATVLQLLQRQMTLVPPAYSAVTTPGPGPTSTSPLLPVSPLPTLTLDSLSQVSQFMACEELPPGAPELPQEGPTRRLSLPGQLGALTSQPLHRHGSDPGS
row,SMILES,"hERG current change (%, negative = inhibition) at 1uM"
1,Cc1cccc(OCCOC(=O)c2c(-c3ccccc3)noc2C)c1,8.36%
2,Nc1nc(-c2nc3ccccc3[nH]2)cs1,8.22%
3,Cc1cccc2cc(CN(Cc3cccs3)C3(c4nnnn4C4CCCC4)CCCC3)c(=O)[nH]c12,-1.01%
4,Cc1c(N=Cc2cccs2)c(=O)n(-c2ccccc2)n1C,16.5%
5,O=C(N/N=C1/CCS(=O)(=O)c2ccc(F)cc21)c1ccccn1,3.33%
6,Cc1cc2nc(-c3ccc[nH]c3=O)n(Cc3ccccc3F)c2cc1C,6.46%
7,CC(C)CC1NC(=O)N(CC(=O)NC2CCCc3ccccc32)C1=O (stereo not shown),9.38%
8,CC1=C([N+](=O)[O-])C(c2ccccc2Cl)NC(=O)N1C (stereo not shown),11.4%
9,COc1ccc(-n2c(C)cc(/C=C3\C(=O)NN(c4ccccc4)C3=O)c2C)cc1,14.6%
10,CN1CCc2cc3c(cc2[C@H]1[C@@H]1OC(=O)c2c1ccc1c2OCO1)OCO3,1.34%
11,COc1ccc(C(C(=O)NC2CCCC2)N(CCCO)C(=O)c2snc(C(N)=O)c2N)cc1 (stereo not shown),7.08%
12,O=C1NC(=O)C(=Cc2ccc(-c3ccc(F)cc3O)o2)C(=O)N1,13.1%
13,CC(=O)c1nnn(-c2ccc(Cl)cc2C#N)c1C,5.43%
14,COc1ccccc1NS(=O)(=O)c1cc(C(=O)N2CCN(C/C=C/c3ccccc3)CC2)ccc1C,1.27%
15,COc1ccc(S(=O)(=O)N2CCC(C(=O)NCc3ccccn3)CC2)cc1Cl,0.395%
16,COC(=O)NC1CCS(=O)(=O)C1 (stereo not shown),-6.41%
17,COCCSc1nnc(NS(=O)(=O)c2ccc(F)cc2)s1,10.5%
18,CCOc1ccc(-n2c(SCC(=O)Nc3ccc4c(c3)OCCO4)nc3c(c2=O)SCC3)cc1,-0.0178%
19,COc1ccc(C(CNC(=O)c2cccc(S(=O)(=O)NCc3ccccc3)c2)N2CCOCC2)cc1 (stereo not shown),-13.5%
20,Cc1ccc(NC(=O)c2cc(=O)c3ccccc3o2)cc1S(=O)(=O)N1CCCCC1,14.1%
21,CCOC(=O)N1CCN(CC(O)COc2ccc(C(C)C)c(C)c2)CC1.Cl (stereo not shown),4.88%
22,CCOC(=O)C1CCN(C(=O)C2CCCN(S(=O)(=O)c3ccc(OC)c(Cl)c3)C2)CC1 (stereo not shown),-29.2%

row,SMILES,"hERG current change (%, negative = inhibition) at 1uM"
1,CC(=O)OC(/C(O)=C(\C#N)c1nc2ccccc2[nH]1)c1ccccc1 (stereo not shown),7.37%
2,COCCN(CCOC)Cc1c(O)ccc2c3c(c(=O)oc12)CCC3,-4.98%
3,S=c1[nH]nc(-c2ccccn2)n1/N=C/c1ccco1,10.7%
4,O=S(=O)(c1ccc(SCc2ccc(Cl)cc2)nc1)N1CCCC1,16.9%
5,O=C(NCc1cccnc1)c1ccc(-c2cc(Cl)ccc2Cl)o1,-14%
6,Brc1ccc(OCc2nnc(SCC3CCCCC3)o2)cc1,14.9%
7,CCC(CC)NCc1c[nH]c2ccccc12.O=C(O)C(=O)O,6.79%
8,COc1ccc(N2C(=O)c3ccccc3NC2c2ccccc2O)cc1 (stereo not shown),11.6%
9,O=C(Nc1cccc(NC(=O)c2cccnc2Cl)c1)c1ccco1,9.36%
10,Cc1n[nH]c(C)c1S(=O)(=O)N(CC(=O)Nc1ccc2c(c1)OCCO2)c1ccc(C(C)C)cc1,7.92%
11,CC1(C)Cc2nc(N)c(C(=O)NCCO)cc2CO1,0.569%
12,CCCNS(=O)(=O)c1ccc(CCC(=O)N2CCN(c3ccc(F)cc3)CC2)cc1,-9.85%
13,Cc1cccc(C)c1NC(=O)CN(C)C(=O)CC1OC(=O)c2ccccc21 (stereo not shown),12.1%
14,COc1ccc(CCNC(=O)CCS(=O)(=O)c2ccc3nc(C)sc3c2)cc1OC,-5.49%
15,O=c1c2oc3ccccc3c2ncn1Cc1ccccc1F,-6.68%
16,CCOC(=O)CSc1nc(N)c(C#N)c(CC(C)C)c1C#N,-1.12%
17,COc1ccc(OC)c(C2=Nn3c(nnc3C3CCCCC3)SC2)c1,0.609%
18,Nc1nnc(SCC(=O)NCCOc2ccccc2)s1,5.15%
19,COc1cccc(/C=N/NC(=O)c2ccccc2N(Cc2ccccc2)S(=O)(=O)c2ccccc2)c1OC,0.976%
20,O=C(CSC1=Nc2ccccc2C2CC=NN12)Nc1ccc(F)c(F)c1F (stereo not shown),-2.96%
21,O=C(Nc1ccc(NC(=O)c2ccc([N+](=O)[O-])cc2[N+](=O)[O-])cc1)c1ccco1,13.5%
22,O=C(CSc1nnc(Cc2ccccc2)n1C1CCCCC1)N1CCOCC1,-3.9%

row,SMILES,"hERG current change (%, negative = inhibition) at 1uM"
1,C/C(=C1/SC(N2CC(C)OC(C)C2)=NC1=O)c1ccccc1 (stereo not shown),2.64%
2,CC12CC3CC(C)(C1)CC(NCc1ccncc1)(C3)C2.Cl,-4.25%
3,Cc1cc(NC(=O)CSc2nnc(-c3ccco3)n2Cc2ccco2)no1,-6.42%
4,O=C(COC(=O)c1ccccc1O)Nc1ncc(Cl)cc1Cl,13.7%
5,COc1ccc(/C=N/Nc2cc(C)nc3c(C)cccc23)cc1,-18%
6,CCOC(=O)C(NC(=O)CC)(Nc1ccccc1OC)C(F)(F)F (stereo not shown),14.2%
7,COc1ccc(NC(=O)c2oc3ccccc3c2NC(=O)C2CC2)cc1,-16.2%
8,CCC(=O)Nc1ccc(C(=O)N/N=C/c2cccnc2)cc1,9.46%
9,CCC(OC(=O)c1cc2sccc2n1C)C(=O)NCC1CCCO1 (stereo not shown),12.2%
10,Cc1cccc(-n2c(O)c(C=Nc3ccc(O)cc3)c3ccccc3c2=O)n1,0.494%
11,COc1cccc(CNC(=O)CCCn2nc(C)n3c(cc4sccc43)c2=O)c1,8.47%
12,COc1cc(C)nc(N2CCCC(C(=O)Nc3ccccc3Br)C2)n1 (stereo not shown),15.3%
13,CCc1ccc(NC(=O)NCCN2CCc3ccccc3C2)cc1,-1.46%
14,COc1ccc(NC(=O)CCNS(=O)(=O)c2cc(Br)ccc2Br)cc1S(N)(=O)=O,14.2%
15,O=c1cc(C(F)(F)F)oc2c1ccc1ccccc12,12.8%
16,CC(C)C(c1nnnn1Cc1ccc(F)cc1)N1CCN(C2CCCC2)CC1 (stereo not shown),-3.74%
17,CCCCOc1ccc(OC(=O)Nc2cc(Cl)ccc2OC)cc1,15.8%
18,CC(C)CNC(=O)C(=O)Nc1cc2c3c(c1)CCC(=O)N3CCC2,11.4%
19,CCCCOc1ccc(/C=N/NC(=O)c2nnn(-c3nonc3N)c2C)cc1,16.1%
20,CCCC/C=C/[C@H](c1ccccc1)[C@H](CO)Cc1cccnc1,7.36%
21,COc1ccccc1-n1c(CCC(=O)O)ccc1-c1ccccc1,-0.0386%
22,CCOC(=O)c1ccc(N2C(=O)CC(N3CC(C)OC(C)C3)C2=O)cc1 (stereo not shown),3.6%

row,SMILES,"hERG current change (%, negative = inhibition) at 1uM"
1,COc1cc(C(CC(=O)O)n2cnnn2)ccc1OC(C)C (stereo not shown),5.15%
2,CCOC(=O)C1=C(C)NC2=C(C(=O)CCC2)C1c1cccs1 (stereo not shown),2.35%
3,CCN(CC)CCCN(Cc1cc2cc3c(cc2[nH]c1=O)OCCO3)C(=O)Nc1ccc(F)cc1,-14.8%
4,NS(=O)(=O)c1ccc(NC(=O)COc2ccc(Cl)cc2)cc1,-3.24%
5,COc1cccc(NC(=O)CCC2CCN(C(=O)c3sccc3C)CC2)c1,10.7%
6,O=C(Nc1ccccc1F)c1ccc(CN2CCc3ccccc3C2)cc1,13.6%
7,CCN(c1cccc(C)c1)c1ncnc2nc[nH]c12,13.4%
8,O=C1NC(c2ccccc2)=C(c2nc3ccccc3s2)C(c2ccc(O)cc2)N1 (stereo not shown),8.7%
9,CC(OC(=O)C1CC1)C(=O)Nc1ncc(Cl)cc1Cl (stereo not shown),15.1%
10,COc1cccc(CC(NC(C)=O)C(=O)NC2CCN(S(=O)(=O)c3ccc(F)cc3)CC2)c1OC (stereo not shown),15.3%
11,COc1cc(C)c(C(C)C)cc1S(=O)(=O)NC1CC(C)(C)NC(C)(C)C1,6.42%
12,COc1cc2cc(CCCOC(=O)c3cccc(Br)c3)oc(=O)c2cc1OC,11.4%
13,CCOc1ccccc1CNC(=O)CCN1C(=O)COc2ccccc21,11.4%
14,c1ccc(Cc2nnc(-c3ccccc3)o2)cc1,10.4%
15,CCOC(=O)c1c[nH]c2ccc3ccccc3c2c1=O,16.9%
16,CCCCOC(=O)c1ccc(NC(=O)CN2C(=O)NC3(CCCCCC3)C2=O)cc1,5.84%
17,CCCCn1c(=O)[nH]c(=O)c2c1nc(-c1ccc([N+](=O)[O-])cc1)n2CC,3.84%
18,CN(C)c1ccc(NC(=O)Oc2ccccc2)cc1,12.9%
19,CCCCCn1c(=O)[nH]c2cc(C(=O)NCCCN3CCC(C)CC3)ccc2c1=O,6.13%
20,O=C(Oc1cc2oc(=O)c3c(c2cc1Cl)CCCC3)c1ccco1,6.03%
21,O=[N+]([O-])c1cnccc1Nc1ccc(Cl)cc1,4.46%
22,Cn1c(=O)n(C)c2cc(/C=N/N=C3/NC(=O)C(CC(=O)O)S3)ccc21 (stereo not shown),13.3%
